Some of the results follow.

One test has as its system HSkMC. Briefly: cytotoxicity call (relative viability < 0.9). The following applies: 10 µM.
The subject of the next test is HepG2. In words: cytotoxicity call (relative viability < 0.9). The following applies: 10 µM.
A further test has as its system S. aureus RN4220. In words: growth inhibition call (relative growth <= 0.2). To be noted: 50 µM.

Consider `O=c1oc2cc(O)ccc2s1`, for which the cytotoxicity call with HSkMC and with HepG2 was “inactive” throughout. In addition, the growth inhibition call with S. aureus RN4220 is “inactive”.
Take `Cc1ccc(S(=O)(=O)N2C[C@H](O)COC[C@@H]3O[C@H](CC(=O)N4CCc5ccccc5C4)CC[C@H]32)cc1`: the cytotoxicity call in the test on HSkMC and with HepG2 was “inactive” throughout. The growth inhibition call in the test with S. aureus RN4220 was “inactive”.
Regarding `Cc1noc(C)c1S(=O)(=O)N(C)C[C@@H]1OCCCC[C@@H](C)Oc2ccc(N(C)C)cc2C(=O)N([C@@H](C)CO)C[C@@H]1C`, the cytotoxicity call in the test with HSkMC and in the test on HepG2 was “inactive” in each case. Besides, in the test on S. aureus RN4220, the growth inhibition call is “inactive”.
In the case of `Cc1noc(C)c1NC(=O)N(C)C[C@@H]1Oc2ccc(NS(=O)(=O)c3ccccc3)cc2CC(=O)N([C@@H](C)CO)C[C@@H]1C`, the cytotoxicity call in the test on HSkMC and with HepG2 was “inactive” each time. In the test with S. aureus RN4220, the growth inhibition call is “inactive”.
Regarding `C[C@@H]1CN([C@@H](C)CO)C(=O)CCCn2cc(nn2)CO[C@@H]1CN(C)C(=O)c1ccc(N2CCN(C)CC2)cc1`, the cytotoxicity call in the test on HSkMC and with HepG2 was “inactive” each time. Besides, the growth inhibition call in the test on S. aureus RN4220 was “inactive”.
As to `O=S(=O)([O-])CCSSCCS(=O)(=O)[O-].[Na+].[Na+]`, the cytotoxicity call in the test on HSkMC and in the test with HepG2 was “inactive” in each case. In addition, in the test with S. aureus RN4220, the growth inhibition call was “inactive”.
Turning to `CN1C(=O)c2cc(NC(=O)C3CCOCC3)ccc2OC[C@@H]2O[C@@H](CC(=O)NCc3ccc4c(c3)OCO4)CC[C@@H]21`, the cytotoxicity call in the test with HSkMC and in the test on HepG2 was “inactive” throughout. The growth inhibition call in the test with S. aureus RN4220 is “inactive”.
Regarding `CO[C@H](CN(C)C(=O)C1CCOCC1)[C@H](C)CN(C(=O)Nc1ccc(C(F)(F)F)cc1)[C@@H](C)CO`, the cytotoxicity call with HSkMC and with HepG2 was “inactive” in each case. The growth inhibition call with S. aureus RN4220 is “active”.
On to `O=C(C1=C[C@H](c2ccc(C(F)(F)F)cc2)C[C@H](OCc2ccc(CO)cc2)O1)N1CCN(Cc2ccc3c(c2)OCO3)CC1`, for which the cytotoxicity call in the test with HSkMC and in the test with HepG2 was “inactive” throughout. Further, the growth inhibition call in the test with S. aureus RN4220 is “inactive”.
Regarding `C[C@@H]1CN([C@@H](C)CO)C(=O)CCCn2cc(nn2)CO[C@H]1CN(C)Cc1ccc2c(c1)OCCN2C`, the cytotoxicity call in the test with HSkMC and with HepG2 was “inactive” in each case. In addition, the growth inhibition call in the test on S. aureus RN4220 was “inactive”.
For the compound `O=C1OCC=C[C@H]2O[C@@]34C=CCN(CCN5CCOCC5)C(=O)[C@H]3N(CCO)C(=O)[C@@H]4[C@@H]12`, the cytotoxicity call in the test on HSkMC and in the test on HepG2 was “inactive” each time. In addition, the growth inhibition call with S. aureus RN4220 is “inactive”.
Consider `Cn1ccc(C(=O)N2CC[C@@H]3OCCN(S(C)(=O)=O)[C@@H]3C2)n1`, for which the cytotoxicity call in the test on HSkMC and with HepG2 was “inactive” in each case. Besides, the growth inhibition call in the test on S. aureus RN4220 was “inactive”.
In the case of `C[C@@H]1CCCCO[C@@H](CN(C)C(=O)Cc2ccccc2)[C@@H](C)CN([C@H](C)CO)C(=O)c2cc(NC(=O)CCC(F)(F)F)ccc2O1`, the cytotoxicity call with HSkMC and with HepG2 was “inactive” each time. Moreover, the growth inhibition call in the test with S. aureus RN4220 was “inactive”.
For the compound `Cc1cn(-c2cc(NC(=O)c3ccc(C)c(Nc4nccc(-c5cccnc5)n4)c3)cc(C(F)(F)F)c2)cn1`, the cytotoxicity call with HSkMC and with HepG2 was “active” each time. Further, the growth inhibition call in the test with S. aureus RN4220 is “inactive”.
In the case of `C[C@H]1CN([C@@H](C)CO)C(=O)c2cc(NC(=O)C3CCCCC3)ccc2O[C@H]1CN(C)Cc1ccc(C(=O)Nc2ccccc2N)cc1`, the cytotoxicity call in the test on HSkMC and with HepG2 was “inactive” in each case. Besides, the growth inhibition call with S. aureus RN4220 was “inactive”.
On to `CC(C)Cn1c(=O)[nH]c2c1c(=O)n(C)c(=O)n2C`, for which the cytotoxicity call with HSkMC and in the test with HepG2 was “inactive” throughout. For the same compound, in the test on S. aureus RN4220, the growth inhibition call was “inactive”.
`C[C@@H]1CN([C@H](C)CO)C(=O)Cc2cc(NS(C)(=O)=O)ccc2O[C@@H]1CN(C)C(=O)Nc1ccc(F)cc1`: the cytotoxicity call in the test with HSkMC and in the test with HepG2 was “inactive” throughout. The growth inhibition call with S. aureus RN4220 is “inactive”.
`C[C@@H]1CN([C@@H](C)CO)C(=O)c2cc(NS(=O)(=O)c3ccccc3)ccc2O[C@@H]1CN(C)S(=O)(=O)c1cccs1`: the cytotoxicity call in the test on HSkMC and in the test on HepG2 was “inactive” in each case. The growth inhibition call with S. aureus RN4220 is “inactive”.
On to `CC(C)NC(=O)Nc1ccc2c(c1)C(=O)N([C@H](C)CO)C[C@H](C)[C@H](CN(C)Cc1ccc(Cl)c(Cl)c1)OCCCC[C@@H](C)O2`, for which the cytotoxicity call with HSkMC and with HepG2 was “inactive” in each case. For the same compound, the growth inhibition call in the test with S. aureus RN4220 is “inactive”.
`COc1ccc(S(=O)(=O)N(C)C[C@@H]2Oc3cc(C#CC4CCCC4)ccc3S(=O)(=O)N([C@H](C)CO)C[C@H]2C)cc1`: the cytotoxicity call with HSkMC and in the test with HepG2 was “inactive” in each case. In the test on S. aureus RN4220, the growth inhibition call was “inactive”.
For `CC(=O)O[C@H]1CC[C@]2(C)[C@H]3CC[C@H]4[C@H]5CC(C)(C)CC[C@]5(C(=O)O)CC[C@@]4(C)[C@]3(C)CC[C@H]2C1(C)C`, the cytotoxicity call with HSkMC and in the test with HepG2 was “inactive” each time. The growth inhibition call in the test with S. aureus RN4220 was “inactive”.
Take `CC(C)(O)CC(=O)NCCn1ccc2ncnc(Nc3ccc(Oc4cccc(C(F)(F)F)c4)c(Cl)c3)c21`: the cytotoxicity call in the test with HSkMC and in the test with HepG2 was “inactive” in each case. For the same compound, the growth inhibition call with S. aureus RN4220 is “active”.
Consider `CN(C)CCCCSC(=N)N`, for which the cytotoxicity call with HSkMC and in the test with HepG2 was “inactive” in each case. The growth inhibition call with S. aureus RN4220 was “inactive”.
On to `COc1ccc(NC(=O)N(C)C[C@H]2Oc3ccc(NC(=O)Nc4cccc5ccccc45)cc3CC(=O)N([C@@H](C)CO)C[C@@H]2C)cc1`, for which the cytotoxicity call in the test on HSkMC and in the test with HepG2 was “inactive” in each case. Further, in the test with S. aureus RN4220, the growth inhibition call is “inactive”.
As to `CN1C(=O)c2cc(NC(=O)C3CCOCC3)ccc2OC[C@H]2O[C@H](CC(=O)NCc3ccc4c(c3)OCO4)CC[C@@H]21`, the cytotoxicity call in the test on HSkMC and with HepG2 was “inactive” in each case. Also, the growth inhibition call in the test on S. aureus RN4220 is “inactive”.
Take `Cc1ccc(S(=O)(=O)N(C)C[C@H]2OCCCC[C@H](C)Oc3ccc(NC(=O)Nc4c(C)noc4C)cc3C(=O)N([C@@H](C)CO)C[C@H]2C)cc1`: the cytotoxicity call in the test on HSkMC (human skeletal muscle cells) and in the test with HepG2 was “inactive” throughout. In addition, the growth inhibition call with S. aureus RN4220 is “inactive”.
As for `COc1ccc(C(=O)N[C@@H](C)c2nnc(SCc3cccc(C(F)(F)F)c3)n2-c2cccc(Cl)c2)cc1`, the cytotoxicity call in the test with HSkMC and in the test on HepG2 was “inactive” each time. Moreover, in the test with S. aureus RN4220, the growth inhibition call was “inactive”.
In the case of `COc1ccc(NC(=O)Nc2cccc3c2O[C@H](CN(C)Cc2ccc(C(F)(F)F)cc2)[C@@H](C)CN([C@@H](C)CO)C3=O)cc1`, the cytotoxicity call with HSkMC and with HepG2 was “inactive” each time. Also, in the test on S. aureus RN4220, the growth inhibition call was “inactive”.
For the compound `COc1cccc(NC(=O)N[C@@H]2C=C[C@@H](CC(=O)N3CCN(C)CC3)O[C@H]2CO)c1`, the cytotoxicity call with HSkMC and with HepG2 was “inactive” in each case. Further, the growth inhibition call in the test with S. aureus RN4220 is “inactive”.

These data come from the antibiotic and cytotoxicity screens of Wong et al. (2023).
